{"source": "PubChem BioAssay AID1508642", "about": "(National Center for Advancing Translational Sciences (NCATS), 2021)", "note": "Hit rate of the full screen: of about 43,000 compounds, about 200 (0.47%) were called active. Another 12% or so got no clear call; they are omitted. The call rests on the fitted dose curve; in most records, active means well fitted cell-killing curve with a large enough effect; inconclusive means small, poorly fitted or top-dose-only effect, or effect the other way; inactive means flat fitted curve, though single readings scatter. The list shows a part of the results. On the % scale 0 is the no-effect control and ±100 the full control effect.", "data": [{"assay": "Cell viability qHTS assay in S16 Pmp22-F2sN cells; further: nearly all actives have a fitted effect of over 65% in size", "settings": "S16 Pmp22-F2sN Schwann cells viability, CellTiter-Glo, 24 h; series mostly up to 57.5 µM; activity change, negative = cytotoxicity: at the top concentration", "procedure,_shortened": "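Used to flag compounds lowering reporter output through toxicity, this quantitative HTS measures ATP-based CellTiter-Glo luminescence in S16 Pmp22-F2sN Schwann cells after 24 h compound exposure at 37C.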", "values": [{"molecule": "Cc1ccccc1CN1c2ccccc2-c2nc(SCC(N)=O)ncc2S1(=O)=O", "activity change, negative = cytotoxicity": "inactive: 11.4%"}, {"molecule": "COC(=O)c1c(NC(=O)c2cc(OC)c(OC)c(OC)c2Br)sc2c1CCC(C)C2", "note": "(centres undefined)", "activity change, negative = cytotoxicity": "inactive: -8.98%"}, {"molecule": "CC(C)CNc1ncnc2c1nnn2C", "activity change, negative = cytotoxicity": "inactive: -12.1%"}, {"molecule": "O=C(CCNS(=O)(=O)c1cccc2nsnc12)NCc1ccccc1", "activity change, negative = cytotoxicity": "inactive: -2.53%"}, {"molecule": "COc1ccc(CNC(=O)CCn2nc(C)c3c(C)n(-c4ccccc4)nc3c2=O)c(OC)c1", "activity change, negative = cytotoxicity": "inactive: 11.2%"}, {"molecule": "CNC(=O)Cn1c(=O)c2cccn2c2ccc(F)cc21", "activity change, negative = cytotoxicity": "inactive: -6.76%"}, {"molecule": "COc1ccc(Cl)cc1NC(=O)Cn1nc(Cc2ccncc2)c2ccccc2c1=O", "activity change, negative = cytotoxicity": "inactive: -26.1%"}, {"molecule": "CCc1ccccc1NC(=O)C1CCN(C(=O)N2CC(C)Oc3ccc(Cl)cc32)CC1", "note": "(centres undefined)", "activity change, negative = cytotoxicity": "inactive: -20.6%"}, {"molecule": "COc1ccccc1NC(=O)N1CCC(CN2CCc3ccccc3C2)CC1", "activity change, negative = cytotoxicity": "inactive: 4.28%"}, {"molecule": "Cc1cc(F)ccc1NC1(c2ccccc2)C(=O)c2ccccc2C1=O", "activity change, negative = cytotoxicity": "inactive: -0.958%"}, {"molecule": "CCOc1ccccc1NC(=O)Cn1c(=O)n(Cc2ccco2)c(=O)c2ccc(C(=O)NC3CCCC3)cc21", "activity change, negative = cytotoxicity": "inactive: 11.8%"}, {"molecule": "CCOc1ccc(N(CC(=O)Nc2ccccc2CC)S(=O)(=O)c2c(C)[nH]c(=O)[nH]c2=O)cc1", "activity change, negative = cytotoxicity": "inactive: 6.67%"}, {"molecule": "Cc1ccc(NC(=O)Cn2c(=O)oc3ccccc32)cc1C", "activity change, negative = cytotoxicity": "inactive: 4.33%"}, {"molecule": "Cc1ccc(NC(=O)c2sc3nc[nH]c(=O)c3c2C)cc1Cl", "activity change, negative = cytotoxicity": "inactive: -12.1%"}, {"molecule": "Cc1ccc(OC(=O)CSc2nnc(-c3cccs3)o2)cc1C", "activity change, negative = cytotoxicity": "inactive: 4.36%"}, {"molecule": "CCn1cc(C(=O)NCCc2ccc(OC)c(OC)c2)c(=O)c2cc(S(=O)(=O)N3CCC(C)CC3)ccc21", "activity change, negative = cytotoxicity": "inactive: -17.1%"}, {"molecule": "CCOc1ccc(-n2c(SCC(=O)N3CCCCCC3)nc3c([nH]c4ccccc43)c2=O)cc1", "activity change, negative = cytotoxicity": "inactive: 20.6%"}, {"molecule": "Cc1ccc(NC(=O)CCNS(=O)(=O)c2cccc3nonc23)cc1Cl", "activity change, negative = cytotoxicity": "inactive: -0.471%"}, {"molecule": "Cc1cn2c(=O)cc(COC(=O)c3cccc(NC(=O)COc4ccccc4C)c3)nc2s1", "activity change, negative = cytotoxicity": "inactive: -2.18%"}, {"molecule": "Cc1ccc(Cc2nc3ccccc3nc2SCC(=O)N2CCCc3ccccc32)cc1", "activity change, negative = cytotoxicity": "inactive: 18%"}, {"molecule": "COc1ccc(-n2c(-c3ccc(C)cc3)cc3c2CC(C)(C)CC3=O)c(OC)c1", "activity change, negative = cytotoxicity": "inactive: -16.5%"}, {"molecule": "Cc1ccccc1C(=O)NCCc1csc(-c2ccc(C(F)(F)F)cc2)n1", "activity change, negative = cytotoxicity": "inactive: -20.7%"}, {"molecule": "CCOC(=O)CSc1nc(-c2ccc(Cl)cc2)cc(C(F)(F)F)c1C#N", "activity change, negative = cytotoxicity": "inactive: -0.106%"}, {"molecule": "Cc1ccc(C(=O)Oc2c(S(=O)(=O)c3ccccc3)c(C)nn2-c2ccccc2)cc1", "activity change, negative = cytotoxicity": "inactive: 7.11%"}, {"molecule": "CN1C(=O)c2ccccc2Sc2ccc(NC(=O)NCc3cccc(Cl)c3)cc21", "activity change, negative = cytotoxicity": "inactive: -26.5%"}, {"molecule": "O=c1oc2cc(O)ccc2cc1-c1nnc(Nc2ccccc2F)s1", "activity change, negative = cytotoxicity": "inactive: 10.3%"}, {"molecule": "Cc1c(-c2nc(-c3ccccc3F)no2)nnn1-c1cc(F)ccc1F", "activity change, negative = cytotoxicity": "inactive: 0.278%"}, {"molecule": "CCCNC(=O)C(C)n1nc(C)c2c(C)n(-c3ccccc3)nc2c1=O", "note": "(centres undefined)", "activity change, negative = cytotoxicity": "inactive: -0.823%"}, {"molecule": "Cc1ccc(CNC(=O)CSc2c3c(nc4cc(Cl)ccc24)CCCC3)cc1", "activity change, negative = cytotoxicity": "inactive: -1.21%"}, {"molecule": "COc1cccc(OCc2cc(=O)n3c(-c4ccccc4)csc3n2)c1", "activity change, negative = cytotoxicity": "inactive: 6.46%"}, {"molecule": "COc1nc(-c2ccccc2)ccc1-c1noc(-c2ccccc2Br)n1", "activity change, negative = cytotoxicity": "inactive: -9.44%"}, {"molecule": "CCN1CCN(C(=O)Cn2c(-c3cccs3)cc3ccccc32)CC1", "activity change, negative = cytotoxicity": "inactive: 1.21%"}, {"molecule": "CCOc1ccccc1CNC(=O)CCc1c(C)nn(-c2ccc(N3CCOCC3)nn2)c1C", "activity change, negative = cytotoxicity": "inactive: -2.38%"}, {"molecule": "COc1ccc(N2CCN(S(=O)(=O)CCNC(=O)COc3ccccc3F)CC2)cc1", "activity change, negative = cytotoxicity": "inactive: -1.84%"}, {"molecule": "CCN(CC)S(=O)(=O)c1ccc(C(=O)NCCSc2c(-c3ccc(C)cc3)[nH]c3ccccc23)cc1", "activity change, negative = cytotoxicity": "inactive: -27.8%"}, {"molecule": "COC(=O)c1cccc(NC(=O)c2nsc3ccccc23)c1", "activity change, negative = cytotoxicity": "inactive: -15.6%"}, {"molecule": "COc1ccc(CCNC(=O)c2ccc3c(c2)N(Cc2ccccc2F)C(=O)c2ccccc2S3=O)cc1OC", "note": "(centres undefined)", "activity change, negative = cytotoxicity": "inactive: 0.471%"}, {"molecule": "COc1ccc(CNC(=O)Cn2nc(N3CCN(c4ccccc4)CC3)ccc2=O)c(OC)c1", "activity change, negative = cytotoxicity": "inactive: 1.73%"}, {"molecule": "COc1ccc(S(=O)(=O)c2c(SC)nn(CC(=O)Nc3cccc(C)c3C)c2N)cc1", "activity change, negative = cytotoxicity": "inactive: -0.53%"}, {"molecule": "Cc1ccc2c(c1)NC(=O)c1cccnc1O2", "activity change, negative = cytotoxicity": "inactive: 0.538%"}, {"molecule": "Cc1ccc(-c2nc(CS(=O)(=O)CC(=O)NCCc3ccccc3)c(C)o2)cc1", "activity change, negative = cytotoxicity": "inactive: 0.237%"}, {"molecule": "CCc1ccc(CN(Cc2ccco2)C(=O)COc2ccc(Cl)c(C)c2)cc1", "activity change, negative = cytotoxicity": "inactive: -10.7%"}, {"molecule": "CCn1cc(C(=O)NCc2ccc(C)cc2)c(=O)c2cc(S(=O)(=O)N(C)C3CCCCC3)ccc21", "activity change, negative = cytotoxicity": "inactive: -11.9%"}, {"molecule": "CCN(CC)c1nc2c(S(=O)(=O)c3cccc(Cl)c3)nnn2c2ccsc12", "activity change, negative = cytotoxicity": "inactive: -20.1%"}, {"molecule": "CC1=C(C(=O)Nc2ccccc2)C(c2ccncc2)n2nc(SCc3ccccc3F)nc2N1", "note": "(centres undefined)", "activity change, negative = cytotoxicity": "inactive: 11.5%"}, {"molecule": "O=C(Nc1ccc(OCc2cc(=O)n3ccccc3n2)cc1)c1ccccc1Cl", "activity change, negative = cytotoxicity": "inactive: 3.53%"}, {"molecule": "Cc1cc(C)n(-c2nc3cc(Cl)ccc3nc2Nc2ccc(CC(=O)O)cc2)n1", "activity change, negative = cytotoxicity": "inactive: 1.82%"}, {"molecule": "COC(=O)c1c(-c2cccs2)csc1NC(=O)c1ccc(OC)c(OC)c1", "activity change, negative = cytotoxicity": "inactive: -7.55%"}, {"molecule": "Cc1cccc(NC(c2ccccc2C)c2ccc3ccc(C)nc3c2O)n1", "note": "(centres undefined)", "activity change, negative = cytotoxicity": "inactive: -22.6%"}]}]}
